Where “and” joins values, the source holds several entries; their conditions need not be identical. Equal values may be shown once. In all, about 390,000 compounds went through this assay and about 150 (0.038%) were called active. Not shown: some 3% with an inconclusive outcome. Calls come from the whole dose curve; as a rule, active = well fitted inhibition curve with a large enough effect; inconclusive = small, poorly fitted or top-dose-only effect; inactive = no such curve, though single readings can be large or run the other way. The list shows a part of the results, in another mix than the full data. Some compounds were tested as several samples or in several runs, with calls that do not always agree.

Results on 51 compounds are retold here after PubChem BioAssay AID504845 (National Center for Advancing Translational Sciences (NCATS), 2011).
% is set by controls: 0 for no effect and ±100 for the full control effect; potency is the fitted concentration of half-maximal effect.

This test addresses Regulator of G-protein signaling 4 (Homo sapiens) (UniProt P49798). Kind of test: Inhibitors of Regulator of G Protein Signaling (RGS) 4: qHTS. Note: nearly all actives have a fitted effect of over 75% in size. To be noted: Transcreener GDP fluorescence polarization, RGS4-accelerated GTP hydrolysis; series mostly up to 114 µM; activity change, negative = inhibition: at the top concentration. In outline: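 MLSMR compounds (23 nl, pin-transferred) preincubated 10 min at room temperature with a 500nM (2x) first reagent, then RGS4 at 900nM (2x) plus Transcreener GDP mix added; fluorescence polarization (620/688 nm) read before and after 90 min at 30 °C.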
Chain of UniProt P49798 (P49798 whole entry, looked up): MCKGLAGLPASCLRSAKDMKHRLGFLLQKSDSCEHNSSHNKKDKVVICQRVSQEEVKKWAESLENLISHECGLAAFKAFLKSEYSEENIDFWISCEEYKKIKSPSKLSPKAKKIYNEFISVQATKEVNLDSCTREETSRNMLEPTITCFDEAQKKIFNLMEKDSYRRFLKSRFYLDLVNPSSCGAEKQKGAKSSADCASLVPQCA
On the technique in general: In qHTS, concentration-response curves come from the screen itself.
As for `CC(=O)N[C@@H](CS)C(=O)O`, the “activity change, negative = inhibition” value was inactive: 2.53%.
Same read-out and setting: to `O=c1[nH]c(=O)c2nc3ccccc3nc2[nH]1` belongs inactive: -9.84%; to `O=C(CSc1nnc(SCc2ccccc2)s1)N/N=C/C=C\c1ccco1`, inactive: -34.1%.
Same read-out and setting: to `Cn1c(=O)cc(OCC(=O)N2CCN(c3ccccc3F)CC2)c2ccccc21` belongs inactive: 3.58%; to `C[c-]1[c-](C)[c-](C)[c-](C)[c-]1C.[Fe].c1cc2nccc(N3CCCC3)[c-]2c1` (stereo unspecified), inactive: -35%.
Still for that read-out and setting: for `O=C(CSc1nc2cc3c(cc2c(=O)n1CCC1=CCCCC1)OCO3)NCc1ccco1` the value was inactive: 57%; for `CC1(C)NC(=O)N(CC(O)CN2CCOCC2)C1=O` (stereo unspecified), inactive: 79.7%; for `O=C(COc1nncc2ccccc12)NCCC1=CCCCC1`, inactive: 55.2%.
With `Cc1ccc(OCc2cc(C(=O)N3CCCC3)no2)cn1`, the “activity change, negative = inhibition” value was inactive: 57.5%.
Consider `Oc1cc2c(cc1O)CN(C(=S)NCCc1ccc(Cl)cc1)CCC2`, for which the Potency is active: 16.8 µM.
Regarding `COCCN(C(=O)c1ccco1)C(C(=O)NC1CCCC1)c1cccs1` (stereo unspecified), the “activity change, negative = inhibition” value was inactive: 54.8%.
`O=C1Cc2c([nH]c3ccc(Br)cc23)-c2ccccc2N1`: the “activity change, negative = inhibition” value was inactive: -29.4%.
Same read-out and setting: for `Cc1coc2c1C(=O)C(=O)c1c-2ccc2c1CCCC2(C)C` the value was inactive: -44%; for `CC(=C/c1ccco1)/C=N/NC(=O)c1nnn(-c2nonc2N)c1CN(C)C`, inactive: -34.4%; for `NC(=O)CCNC(=O)c1ccc(Cl)cc1`, inactive: 60.1%.
Consider `COc1ccccc1CNC(=O)C1CCCN(S(=O)(=O)c2cccc3nsnc23)C1` (stereo unspecified), for which the “activity change, negative = inhibition” value was inactive: 57.4%.
On the same count and under the same terms, to `O=C(CCCN1C(=O)/C(=C\c2cccs2)SC1=S)Nc1ccccn1` belongs inactive: -3.2%; to `O=c1c(-c2ccc(O)cc2)coc2cc(O)ccc12`, inactive: -5.39%.
On to `CC(=O)CCCCn1c(=O)c2c(ncn2C)n(C)c1=O`, for which the Potency result is “inactive”.
Regarding `Cc1c(N2C(=O)/C(=C/C3CC=CCC3)SC2=S)c(=O)n(-c2ccccc2)n1C` (stereo unspecified), the “activity change, negative = inhibition” value is inactive: -42.9%.
For `C[C@@H](N)C1CCC(C(=O)Nc2ccncc2)CC1` (stereo partly specified), the Potency entry was “inactive”.
For `Cc1ccc2cc3cc(C(=O)N4CCN(C(=O)c5ccco5)CC4)sc3nc2c1`, the “activity change, negative = inhibition” value was inactive: 97.1%.
As to `CC(C(=O)O)c1cccc(C(=O)c2ccccc2)c1` (stereo unspecified), the Potency result was “inactive”.
Consider `CSc1cccc(NC(=O)C(C)Sc2ccc(C)cc2)c1` (stereo unspecified), for which the “activity change, negative = inhibition” value was inactive: 55.1%.
Same read-out and setting: for `Cc1cc(C)c2c(c1)C1C=CCC1C(c1ccc(S(=O)(=O)N3CCOCC3)cc1)N2` (stereo unspecified) the value was inactive: -23.4%.
With `CC(=O)O[C@H]1C(=O)[C@@]2(C)C([C@H](OC(=O)c3ccccc3)[C@]3(O)C[C@H](OC(=O)[C@H](O)[C@@H](NC(=O)c4ccccc4)c4ccccc4)C(C)=C1C3(C)C)[C@]1(OC(C)=O)CO[C@@H]1C[C@@H]2O` (stereo partly specified), the Potency result was “inactive”.
Regarding `NCCSSCCN`, the “activity change, negative = inhibition” value was inactive: -6.78%.
With `CCCCCN(CCCCC)C(=O)C(CCC(=O)O)NC(=O)c1ccc(Cl)c(Cl)c1` (stereo unspecified), the Potency result is “inactive”.
As for `CC(C)NCC(O)c1ccc(O)c(O)c1` (stereo unspecified), the “activity change, negative = inhibition” value was inactive: -16.3%.
Still for that read-out and setting: to `c1ccc(-c2nnc(CSc3nnc(-c4cccs4)o3)o2)cc1` belongs inactive: 68.3%; to `O=C(O)CCC(=O)Nc1sc2c(c1C(=O)Nc1ccccc1)CCCCC2`, inactive: -34.7%; to `CCOC(=O)/C=C/C(=O)N1CCc2ccccc21`, inactive: 58.1%.
On the same count and under the same terms, for `COC(CNC(=O)c1cn(C)c2ccc(S(=O)(=O)N(C)C3CCCCC3)cc2c1=O)OC` the value was inactive: 67.5%.
The same measure, in the same setting: for `COCCCN1C(=O)C(=O)/C(=C(/O)c2ccc(OC)cc2C)C1c1cccnc1` (stereo unspecified) the value was inactive: 54.3%.
Regarding `CCN(CC)C(=S)SSC(=S)N(CC)CC`, the Potency result is “inactive and active: 1.06 µM”.
Take `Cc1nnc(NC(=O)c2nc(S(=O)(=O)Cc3ccccc3)ncc2Cl)s1`: the “activity change, negative = inhibition” value is inactive: 9.18%.
Still for that read-out and setting: to `CCCc1nnc(NC(=O)c2nc(S(=O)(=O)Cc3ccc(C)cc3)ncc2Cl)s1` belongs inactive: -41.1%.
Consider `Nc1c2c(nc3ccccc13)CCCC2`, for which the Potency result is “inactive”.
Consider `O=C1/C(=C/c2cccnc2)Sc2ccccc21`, for which the “activity change, negative = inhibition” value is inactive: -51.9%.
On the same count and under the same terms, to `Cc1sc2nc(CN(CCc3ccccc3)C(=O)c3ccco3)[nH]c(=O)c2c1C` belongs inactive: 164%.
On the same count and under the same terms, to `CCc1ccc2c(-c3cccc(Cl)c3)nc(=O)n(CC)c2n1` belongs inactive: -102% [at 56.9 µM]; to `CN1C(=O)CCC1c1cccnc1` (stereo unspecified), inactive: -124% [at 56.9 µM]; to `O=C1CN(/N=C/c2ccc(-c3ccc([N+](=O)[O-])cc3)o2)C(=O)N1`, inactive: 440% [at 56.9 µM].
On the same count and under the same terms, to `COC(=O)C(C)(N)Cc1ccc(O)cc1` (stereo unspecified) belongs inactive: -27.7%.
For `NC(N)=NC(=O)c1nc(Cl)c(N2CCCCCC2)nc1N`, the “activity change, negative = inhibition” value is inactive: -1.04%.
Turning to `CCN(CC)CCOC(=O)C(Cc1cccc2ccccc12)CC1CCCO1` (stereo unspecified), the “activity change, negative = inhibition” value is inactive: 59.3%.
Consider `CC1=C(/C=C/C(C)=C/C=C/C(C)=C/C(=O)Nc2ccc(O)cc2)C(C)(C)CCC1`, for which the Potency result is “inactive”.
With `Cc1ccc(-c2n[nH]c3c2CCC3)cc1`, the “activity change, negative = inhibition” value is inactive: 57.4%.
On to `Nc1ncnc2c1ncn2[C@@H]1O[C@H](COP(=O)(O)O)[C@@H](O)[C@H]1O`, for which the “activity change, negative = inhibition” value is inactive: -16.8%.
On the same count and under the same terms, to `Cc1oc(-c2ccccc2)cc1C(=O)Nc1cccc(/C=C\C(=O)O)c1` belongs inactive: -24.8%; to `CCCCCCCCCCCCCCC[C@@H](O)[C@@H](N)CO`, inactive: 12.5%.
